According to PubChem BioAssay AID1963576 (National Center for Advancing Translational Sciences (NCATS), 2024):
Hit rate of the full screen: of about 46,000 compounds, about 60 (0.1%) were called active. Another 3% or so got no clear call; they are omitted. The call rests on the fitted dose curve; in most records, active means well fitted inhibition curve with a large enough effect; inconclusive means small, poorly fitted or top-dose-only effect; inactive means no such curve, though single readings can be large or run the other way. The list shows a part of the results.

Experiment: Primary qHTS assay for Inhibitors of ovarian cancer metastasis using an organotypic tumor microenvironment (TME) model. Further: nearly all actives have a fitted effect of over 65% in size.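 On activity change, negative = inhibition: plate controls were DMSO wells for no effect and tomatine positive control wells for full effect.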
Settings: SKOV3ip1-GFP adhesion/invasion on 3D omental model, fluorescence; series mostly up to 45.8 µM; activity change, negative = inhibition: at the top concentration
Summary of the method: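 A 3D layer of primary human omental fibroblasts, mesothelial cells, fibronectin and collagen I, grown 48 hr, received SKOV3ip1-GFP cells in serum-free medium plus compounds at 0.36-46 umol/L. After 2 hr RT and 16 hr 37 C, fixed adherent GFP cells were counted; normalized to DMSO and tomatine.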

Activity change, negative = inhibition, inactive:
Cc1ccccc1CN1CCCN(CC(=O)Nc2ccc(F)cc2)S1(=O)=O 3.49%, Cc1cccc(NC(=O)c2cn(-c3ccccc3)nc2-c2ccccc2)c1C -1.88%, Cn1c(=O)oc2cc(S(=O)(=O)NC(Cc3ccccc3)C(=O)Nc3ccc(F)c(Cl)c3)ccc21 (centres undefined) 2.75%, CCOc1ccc(C(=O)Nc2ccc3nc(N(CC)CC)cc(C)c3c2)cc1 -6.28%, CO[C@@]12[C@H](COC(N)=O)C3=C(C(=O)C(C)=C(N)C3=O)N1C[C@@H]1N[C@@H]12 -11.5%, Cc1ccc(/C=C/C(=O)Nc2ccc3nc(N4CCC(C)CC4)cc(C)c3c2)cc1 5.97%, CCOc1ccc(NC(=O)c2sc(-n3nc(C)c(Cc4ccc(Cl)cc4)c3C)nc2C)cc1 -0.245%, Clc1ccccc1Cn1c(-c2cccs2)nc2ccccc21 -11.2%, Cc1nnc(NC(=O)c2nc(SC(C)C)ncc2Cl)s1 2.82%, Cc1cccc(N(C)C(=O)CCS(=O)(=O)c2ccc3c(c2)n(C)c(=O)c(=O)n3C)c1 20.2%, CCOC(=O)c1c(-c2ccc(C)cc2)csc1NC(=O)c1cc(-c2ccc(OC)cc2)on1 -1.07%, CCc1cccc(NC(=O)c2ccc3c(c2)N(Cc2cccc(Cl)c2)C(=O)c2ccccc2S3=O)c1 (centres undefined) 15.6%, COc1ccc(CCNC(=O)c2ccc3c(c2)N=C(C)c2ccccc2S3)cc1OC 9.49%, COc1ccc(-c2nc3ccccc3o2)cc1NC(=O)c1cccnc1 7.71%, CCCn1c2ccccc2c2cnn(CC(=O)NCCN(CC)CC)c(=O)c21 9.19%, Cc1cccc(NC(=O)CN(C)S(=O)(=O)c2ccc3c(c2)c(=O)n(C)c(=O)n3C)c1C 98.8%, Cc1cc(Nc2cccc(C(=O)O)c2)n2nc(C)nc2n1 9.74%, COc1ccc(CCNS(=O)(=O)c2c(C)nc3sc(C)cn3c2=O)cc1OC 3.78%, CCCCOc1ccc(C(=O)Nc2cc(-c3cn4cccnc4n3)ccc2OC)cc1 12%, CCOc1c(Cl)cc(CNc2ccc3[nH]c(=O)[nH]c3c2)cc1OC -19.8%, COc1ccc(NC(=O)NC(C)c2c(-n3cccc3)sc(C)c2C)cc1OC (centres undefined) -9.45%, O=C(CSCc1cccc(F)c1)NCc1ccccc1 -1.27%, CCCC1=Nc2cc(C(=O)NCc3ccc(OC)cc3)ccc2Sc2ccc(C)cc21 -13.3%, Fc1cccc(-n2ncc3c2ncn2nc(COc4ccc(Cl)cc4)nc32)c1 -0.244%, O=C(CCC1N=C2c3ccccc3N=C(SCc3ccc(F)cc3)N2C1=O)NCc1ccc(F)cc1 (centres undefined) -26.4%, COc1ccc(-c2cc3nc(C)c(CCC(=O)Nc4ccccc4C(C)=O)c(C)n3n2)c(OC)c1 5.53%, CCc1cccc(C)c1NC(=O)Cn1ccn(-c2cccc(OC)c2)c(=O)c1=O 5.84%, Cc1cccc(Cn2c(SCc3ccc(C(=O)NCCc4ccccc4)cc3)nc3ccncc32)c1 -10.4%, O=C(CCc1nc(CN2CCN(S(=O)(=O)c3ccc(Cl)cc3)CC2)no1)N1CCCCC1 1.99%, Cc1ccc(S(=O)(=O)Nc2cc3c(cc2NCc2ccccc2)n(C)c(=O)n3C)c(C)c1 -3.64%, CN1CCc2c(sc3c2C(=O)NC(c2ccc(OC(=O)c4ccc(C(C)(C)C)cc4)cc2)N3)C1 (centres undefined) -17.5%, CCOc1ccc(C(=O)NCCn2cc(SCC(=O)Nc3ccc4c(c3)OCCO4)c3ccccc32)cc1 -7.66%, CCOc1ccc(-c2nc(CSCC(=O)N3CCN(c4ccc(F)cc4)CC3)c(C)o2)cc1 1.33%, Cc1nc2scc(C)n2c(=O)c1S(=O)(=O)Nc1ccc(N2CCOCC2)c(Cl)c1 -13.7%, CCC(C(=O)Nc1cc(OC)cc(OC)c1)n1nc(-c2ccc(C)c(C)c2)ccc1=O (centres undefined) 15.5%, CCN(CC)C(=O)c1sc2c(c1C)c(=O)n(-c1ccc(Cl)c(Cl)c1)c(=O)n2Cc1ccccc1C#N 1.34%, COCCCNc1oc(/C=C/c2cc(OC)c(OC)c(OC)c2)nc1C#N 32.3%, CN(C)c1ccc(-c2nc(-c3cc4cc(Cl)ccc4oc3=O)cs2)cc1 1.84%, CCc1cccc(NC(=O)CCC(=O)N2CCSc3ccccc32)c1 1.14%, Cc1ccc(Oc2c(C(F)(F)F)oc3c(CN4CCC(C)CC4)c(O)ccc3c2=O)cc1 7.49%, Cc1cc(-c2ccc(C)c(S(=O)(=O)N3CCN(c4cccc(C(F)(F)F)c4)CC3)c2)on1 -12.3%, Cc1cccc(NC(=O)CSc2ncc3c(n2)-c2ccccc2N(Cc2ccc(F)cc2)S3(=O)=O)c1C -2.3%, CCC(C)NC(=O)c1cc(-c2cccc(OC)c2)on1 (centres undefined) -8%, Cc1ccc(N2CCN(C(=O)c3c(C)oc4ncn(CC(C)C)c(=O)c34)CC2)c(C)c1 -0.75%, CCc1ccc(C(=O)c2cn(CC(=O)Nc3cc(C)ccc3C)c3nc(C)ccc3c2=O)cc1 0.616%, CCN(CC)C(=O)c1c(-c2ccccc2)c(-c2ccccc2)nn(C)c1=O 4.23%, CC(=O)N1CCCc2cc(S(=O)(=O)N3CCC(C(=O)Nc4cccc(Cl)c4C)CC3)ccc21 0.919%, Cc1cc2ccccc2n1-c1ccc(C(=O)N2CCC(C(=O)NCc3ccc(Cl)cc3)CC2)s1 -14.4%, COc1ccc(N2CCN(C(=O)CCn3nc(C)c(S(=O)(=O)N4CCCC4)c3C)CC2)cc1 -1.64%, CCOC(CN1C(=O)[C@](CC(=O)Nc2ccc(C)cc2)(NC(=O)Nc2ccc(C)cc2)c2ccccc21)OCC -1.2%

outcome, inactive:
COc1cccc(NS(=O)(=O)c2ccc3[nH]cc(C(=O)NC(C)c4ccccc4)c(=O)c3c2)c1 (centres undefined), CCOC(=O)C1CCN(Cc2cn3c(-c4ccc(OC)cc4)nnc3s2)CC1, Cc1cc(N2CCC(C(=O)Nc3ccc(F)cc3F)CC2)n2nc(C)c(-c3ccc(Cl)cc3)c2n1, CCOc1cccc2sc(NC(=O)c3ccc(S(=O)(=O)N4CCCCC4C)cc3)nc12 (centres undefined), CCN(c1cccc(C)c1)S(=O)(=O)c1cc2c(cc1C)n(C)c(=O)c(=O)n2C, COc1ccc(-n2c(=O)c3c(c4cc(OC)ccc4n3C)n(Cc3cccc(OC)c3)c2=O)cc1, COc1cc(NC(=O)Cn2c(=O)n(Cc3ccco3)c(=O)c3sc4ccccc4c32)cc(OC)c1, Cc1cccc(CCNC(=O)c2ccc3c(c2)N(Cc2ccccc2F)C(=O)c2ccccc2S3)c1, O=C(CSc1nnc(-c2cccs2)o1)Oc1ccccc1
